Experimental findings from the supplement of paper PMC4967469 are described below.

The IC50 comes from the fitted curve, where viability falls to half of the control; a fit beyond the top or the lowest dose is shown as a bound at that dose. AUC, from the same fit, is the share of area under the viability curve across the 256-fold dose range; values near 1 show little effect. An inferred top dose comes from the curve model; the source does not state it.

Compound in this assay: COc1ncc(-c2ccc3nccc(-c4ccnnc4)c3c2)cc1NS(=O)(=O)c1ccc(F)cc1F [GSK2126458]
Nature of the assay: Viability of human cancer cell lines after 72 h of drug (GDSC screen). The conditions noted are these: top dose inferred. As for the experimental part:
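Human cancer cell lines in 384-well plates, medium with 10% serum, drug for 72 h over a 256-fold dose range (nine 2-fold or five 4-fold steps up to the top dose). Adherent lines were fixed and stained with the nucleic acid dye Syto60, suspension lines read with resazurin; signal relative to control wells, capped at 0 and 100%. One two-parameter sigmoid per drug and line, fitted in a mixed model over all curves with the slope shared within a line.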

On to “NCI-H2009 (lung adenocarcinoma, adherent, top dose 0.128 µM)”, for which the AUC amounted to 0.954 and the IC50 is > 0.128 µM.

As to “NCI-H2023 (lung adenocarcinoma, adherent, top dose 0.128 µM)”, the AUC was found to be 0.891 and the half-maximal inhibitory concentration (IC50) is > 0.128 µM.

For “NCI-H2029 (small cell lung carcinoma, adherent, top dose 0.128 µM)”, the AUC came to 0.925 and the IC50 was > 0.128 µM.

As to “NCI-H2030 (lung adenocarcinoma, adherent, top dose 0.128 µM)”, the AUC is 0.741 and the IC50 stood at 0.0438 µM.

As for “NCI-H2052 (mesothelioma, adherent, top dose 0.128 µM)”, the AUC turned out to be 0.953 and the IC50 is > 0.128 µM.

With “NCI-H2081 (small cell lung carcinoma, suspension, top dose 0.128 µM)”, the AUC was determined as 0.809 and the IC50 is 0.0717 µM.

Regarding “NCI-H2085 (lung adenocarcinoma, adherent, top dose 0.128 µM)”, the AUC came out at 0.452 and the IC50 worked out at 0.00586 µM.

Take “NCI-H2087 (lung adenocarcinoma, semi-adherent, top dose 1.024 µM)”: the AUC worked out at 0.709 and the IC50 was 0.263 µM.

“NCI-H2110 (non-small cell lung carcinoma, adherent, top dose 0.128 µM)”: the AUC was determined as 0.835 and the IC50 was found to be 0.0873 µM.

Take “NCI-H2122 (lung adenocarcinoma, adherent, top dose 1.024 µM)”: the AUC is 0.784 and the half-inhibitory concentration (IC50) amounted to 0.405 µM.

As to “NCI-H2135 (non-small cell lung carcinoma, adherent, top dose 0.128 µM)”, the AUC is 0.822 and the concentration for half-maximal inhibition (IC50) came to 0.0716 µM.

As to “NCI-H2141 (small cell lung carcinoma, suspension, top dose 0.128 µM)”, the AUC came out at 0.796 and the IC50 turned out to be 0.0578 µM.

With “NCI-H2170 (lung squamous cell carcinoma, adherent, top dose 0.128 µM)”, the AUC came to 0.937 and the IC50 was > 0.128 µM.

“NCI-H2171 (small cell lung carcinoma, suspension, top dose 0.128 µM)”: the AUC was determined as 0.562 and the IC50 turned out to be 0.0115 µM.

As for “NCI-H2172 (non-small cell lung carcinoma, adherent, top dose 0.128 µM)”, the AUC was determined as 0.928 and the half-maximal inhibitory concentration (IC50) is > 0.128 µM.

For the cell line “NCI-H2196 (small cell lung carcinoma, adherent, top dose 0.128 µM)”, the AUC is 0.832 and the IC50 was 0.0876 µM.

For the cell line “NCI-H2227 (small cell lung carcinoma, semi-adherent, top dose 0.128 µM)”, the AUC turned out to be 0.678 and the IC50 came out at 0.0269 µM.

Turning to “NCI-H2228 (lung adenocarcinoma, adherent, top dose 0.128 µM)”, the AUC stood at 0.767 and the IC50 worked out at 0.0735 µM.

For “NCI-H2291 (lung adenocarcinoma, adherent, top dose 0.128 µM)”, the AUC was 0.976 and the half-inhibitory concentration (IC50) was > 0.128 µM.

As to “NCI-H2342 (lung adenocarcinoma, adherent, top dose 0.128 µM)”, the AUC was 0.937 and the IC50 was > 0.128 µM.

Take “NCI-H2347 (lung adenocarcinoma, adherent, top dose 0.128 µM)”: the AUC is 0.782 and the IC50 worked out at 0.0659 µM.

Take “NCI-H2405 (lung adenocarcinoma, adherent, top dose 0.128 µM)”: the AUC was found to be 0.853 and the IC50 is 0.117 µM.

For “NCI-H2444 (non-small cell lung carcinoma, adherent, top dose 0.128 µM)”, the AUC worked out at 0.919 and the IC50 was > 0.128 µM.

Regarding “NCI-H2452 (mesothelioma, adherent, top dose 0.128 µM)”, the AUC amounted to 0.984 and the IC50 was > 0.128 µM.

For the cell line “NCI-H3122 (lung adenocarcinoma, adherent, top dose 0.128 µM)”, the AUC worked out at 0.627 and the IC50 is 0.0182 µM.

Consider “NCI-SNU-1 (stomach, suspension, top dose 0.128 µM)”, for which the AUC was determined as 0.79 and the IC50 worked out at 0.0591 µM.

As for “NCI-SNU-5 (stomach, suspension, top dose 0.128 µM)”, the AUC stood at 0.976 and the IC50 was > 0.128 µM.

Consider “NCI-SNU-16 (stomach, suspension, top dose 0.128 µM)”, for which the AUC was 0.991 and the IC50 was > 0.128 µM.

With “NEC8 (testis, adherent, top dose 0.128 µM)”, the AUC is 0.944 and the IC50 was > 0.128 µM.

Turning to “NH-12 (neuroblastoma, adherent, top dose 0.128 µM)”, the AUC amounted to 0.371 and the IC50 was 0.00338 µM.

Regarding “NKM-1 (acute myeloid leukaemia, suspension, top dose 0.128 µM)”, the AUC was 0.254 and the IC50 came to 0.00154 µM.

Regarding “NMC-G1 (glioma, adherent, top dose 0.128 µM)”, the AUC is 0.649 and the IC50 turned out to be 0.0228 µM.

Consider “NOMO-1 (acute myeloid leukaemia, suspension, top dose 0.128 µM)”, for which the AUC amounted to 0.459 and the IC50 is 0.00609 µM.

As for “NOS-1 (osteosarcoma, adherent, top dose 0.128 µM)”, the AUC worked out at 0.285 and the IC50 was determined as 0.0017 µM.

For the cell line “NTERA-2 cl.D1 (testis, adherent, top dose 0.128 µM)”, the AUC was determined as 0.74 and the IC50 was found to be 0.0385 µM.

Take “NU-DUL-1 (B-cell lymphoma, suspension, top dose 0.128 µM)”: the AUC was determined as 0.104 and the IC50 was found to be 0.000624 µM.

With “NUGC-3 (stomach, adherent, top dose 0.128 µM)”, the AUC was 0.852 and the IC50 amounted to 0.118 µM.

For “NUGC-4 (stomach, adherent, top dose 0.128 µM)”, the AUC is 0.972 and the IC50 is > 0.128 µM.

As for “NY (osteosarcoma, adherent, top dose 0.128 µM)”, the AUC came out at 0.974 and the IC50 was > 0.128 µM.

“OACM5-1 (oesophagus, semi-adherent, top dose 0.128 µM)”: the AUC is 0.333 and the IC50 turned out to be 0.00257 µM.

In the case of “OACp4C (oesophagus, adherent, top dose 0.128 µM)”, the AUC was found to be 0.299 and the IC50 was found to be 0.00192 µM.

Consider “OAW-28 (ovary, adherent, top dose 0.128 µM)”, for which the AUC was found to be 0.65 and the IC50 worked out at 0.0233 µM.

In the case of “OAW-42 (ovary, adherent, top dose 0.128 µM)”, the AUC came to 0.477 and the IC50 was determined as 0.0069 µM.

As to “OC-314 (ovary, adherent, top dose 0.128 µM)”, the AUC was found to be 0.708 and the IC50 is 0.0279 µM.

In the case of “OCI-AML2 (acute myeloid leukaemia, suspension, top dose 0.128 µM)”, the AUC turned out to be 0.857 and the half-maximal inhibitory concentration (IC50) turned out to be 0.065 µM.

On to “OCI-AML3 (acute myeloid leukaemia, suspension, top dose 0.128 µM)”, for which the AUC amounted to 0.571 and the IC50 was 0.0121 µM.

As for “OCI-AML5 (acute myeloid leukaemia, suspension, top dose 0.128 µM)”, the AUC turned out to be 0.329 and the IC50 amounted to 0.00279 µM.

Turning to “OCI-LY-19 (B-cell lymphoma, suspension, top dose 0.128 µM)”, the AUC turned out to be 0.255 and the IC50 is 0.0017 µM.

Consider “OCI-M1 (acute myeloid leukaemia, suspension, top dose 0.128 µM)”, for which the AUC worked out at 0.337 and the IC50 is 0.00318 µM.

On to “OCUB-M (breast, adherent, top dose 0.128 µM)”, for which the AUC stood at 0.365 and the IC50 was determined as 0.0036 µM.

With “OCUM-1 (stomach, adherent, top dose 0.128 µM)”, the AUC is 0.907 and the IC50 is > 0.128 µM.

On to “OE19 (oesophagus, adherent, top dose 0.128 µM)”, for which the AUC was determined as 0.976 and the IC50 is > 0.128 µM.

As for “OE21 (oesophagus, adherent, top dose 0.128 µM)”, the AUC amounted to 0.841 and the IC50 was > 0.128 µM.

As for “OE33 (oesophagus, adherent, top dose 0.128 µM)”, the AUC worked out at 0.825 and the half-maximal inhibitory concentration (IC50) came out at 0.0971 µM.

With “OMC-1 (cervix, adherent, top dose 0.128 µM)”, the AUC came out at 0.728 and the IC50 came out at 0.0369 µM.

Take “ONS-76 (medulloblastoma, adherent, top dose 0.128 µM)”: the AUC turned out to be 0.736 and the IC50 was determined as 0.04 µM.

As to “OPM-2 (myeloma, suspension, top dose 0.128 µM)”, the AUC stood at 0.673 and the IC50 stood at 0.0219 µM.

As to “OS-RC-2 (kidney, adherent, top dose 0.128 µM)”, the AUC worked out at 0.633 and the IC50 worked out at 0.022 µM.

For the cell line “OSC-19 (head and neck, adherent, top dose 0.128 µM)”, the AUC was determined as 0.71 and the IC50 came out at 0.0323 µM.

For the cell line “OSC-20 (head and neck, adherent, top dose 0.128 µM)”, the AUC turned out to be 0.759 and the IC50 stood at 0.0527 µM.

As to “OV-7 (ovary, adherent, top dose 0.128 µM)”, the AUC was determined as 0.646 and the IC50 is 0.0251 µM.

Consider “OV-17R (ovary, adherent, top dose 0.128 µM)”, for which the AUC was determined as 0.763 and the IC50 was found to be 0.0647 µM.
